In PubChem BioAssay AID1460 (National Center for Advancing Translational Sciences (NCATS), 2008):
Among all 270,000 compounds or so, about 5,800 (2.1%) were called active. The inconclusive results got no clear call from the source; some entries with a clear call stand among them for comparison. Calls follow the shape of the dose curve; as a rule, active = well fitted inhibition curve with a large enough effect; inconclusive = small, poorly fitted or top-dose-only effect; inactive = flat fitted curve, though single readings scatter. Where the call is inconclusive, the potency comes from a doubtful curve fit. More than one record can exist for a structure, and the calls need not agree.

Biological target: Microtubule-associated protein tau (Homo sapiens) (UniProt P10636)
Sequence of UniProt P10636 (P10636 whole entry, looked up): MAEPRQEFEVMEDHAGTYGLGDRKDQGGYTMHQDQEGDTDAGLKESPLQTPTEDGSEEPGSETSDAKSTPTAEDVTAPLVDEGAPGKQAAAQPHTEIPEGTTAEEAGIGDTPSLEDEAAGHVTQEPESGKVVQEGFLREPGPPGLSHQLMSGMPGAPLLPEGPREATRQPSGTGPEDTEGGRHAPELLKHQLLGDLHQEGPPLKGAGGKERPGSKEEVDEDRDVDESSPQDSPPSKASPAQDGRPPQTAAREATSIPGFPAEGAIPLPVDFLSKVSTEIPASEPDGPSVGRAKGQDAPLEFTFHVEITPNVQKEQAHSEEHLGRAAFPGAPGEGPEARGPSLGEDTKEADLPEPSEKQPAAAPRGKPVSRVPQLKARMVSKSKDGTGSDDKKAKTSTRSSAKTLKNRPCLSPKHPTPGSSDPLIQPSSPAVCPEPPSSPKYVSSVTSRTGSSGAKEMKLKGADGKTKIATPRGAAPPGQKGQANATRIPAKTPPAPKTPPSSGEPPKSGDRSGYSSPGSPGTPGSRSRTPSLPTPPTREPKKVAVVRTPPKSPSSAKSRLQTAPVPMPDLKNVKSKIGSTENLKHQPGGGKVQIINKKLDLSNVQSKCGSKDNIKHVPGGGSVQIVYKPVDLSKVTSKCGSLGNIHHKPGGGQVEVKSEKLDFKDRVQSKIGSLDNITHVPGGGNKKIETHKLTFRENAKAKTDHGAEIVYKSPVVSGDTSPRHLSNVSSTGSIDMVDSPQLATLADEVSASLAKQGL
Experiment: qHTS for Inhibitors of Tau Fibril Formation, Thioflavin T Binding; also: nearly all actives have a fitted effect of over 55% in size
Conditions: recombinant tau K18 P301L (four-repeat tau fragment), heparin-induced fibrillization, ThT fluorescence; series mostly up to 57.4 µM; activity, negative = inhibition: at the top concentration
In short: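 Aggregation was driven by heparin (20 uM final) acting on recombinant tau […] bearing P301L in 100 mM sodium acetate pH 7; fibrils were detected with Thioflavin T.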
% is scaled to controls: 0 for no effect and ±100 for the full control effect; potency is read from the fitted curve at half-maximal effect; tags tell the direction and shape of the fitted curve.

| Compound | Potency | activity, negative = inhibition |
| --- | --- | --- |
| CCCCC1=CC2=C(c3ccco3)C(=O)C(C)(OC(=O)c3ccc(OC)cc3)C(=O)C2=CN1Cc1ccc(OC)cc1 (stereo unspecified) | active: 14.1 µM | inactive: -8.5% [at 11.5 µM] |
| COc1cccc(C2C(C#N)=C(N)Oc3cc(C)n(Cc4ccco4)c(=O)c32)c1 (stereo unspecified) | inconclusive: 28.2 µM [inhibitor, single point] | – |
| CC(C)NC(=O)c1cnc(N2CCN(c3ccccn3)CC2)c2ccccc12 | inconclusive: 39.8 µM [inhibitor, partial curve, poor fit] | – |
| O=C(COc1ccc(Cl)cc1)Nc1nnc2n1CCS2 | inconclusive: 11.2 µM [inhibitor, partial curve] | – |
| CC1OC(OCC2OC(Oc3c(-c4ccc(O)c(O)c4)oc4cc(O)cc(O)c4c3=O)C(O)C(O)C2O)C(O)C(O)C1O (stereo unspecified) | inconclusive: 28.2 µM [inhibitor, partial curve] | – |
| CCOC(=O)C(=CNc1cccnc1Oc1ccc(C)c2c1CCC2)C(=O)OCC | inconclusive: 39.8 µM [inhibitor, single point] | – |
| COc1ccc(C)cc1NC(=O)CSc1nc2ccccc2nc1N1CCOCC1 | inconclusive: 31.6 µM [inhibitor, single point] | – |
| CN=C1NN=C(c2cc(C)n(-c3ccc(Cl)cc3)c2C)CS1 | inconclusive: 10 µM [inhibitor, partial curve] | – |
| Cc1ccc(CCNC(=O)NCc2noc3ccccc23)cc1 | inconclusive: 39.8 µM [inhibitor, single point] | – |
| Cc1ccccc1C1N(c2nccs2)C(=O)C2CCCN21 (stereo unspecified) | inconclusive: 39.8 µM [inhibitor, single point] | – |
| COc1cccc(C(=O)Nc2ccc(-c3nc4ccccc4o3)c(O)c2)c1 | inconclusive: 0.398 µM [inhibitor, full curve] | – |
| Clc1cccc(Cl)c1-c1noc(CN2CCOCC2)n1 | – | inactive: -6.08% |
| Cc1cc(C)nc(NC(=O)/C=C/c2cccs2)c1 | inconclusive: 22.4 µM [inhibitor, partial curve] | – |
| O=C(NCc1cccnc1)c1ccc(N2CCOCC2)c([N+](=O)[O-])c1 | inconclusive: 0.282 µM [activator, full curve, poor fit] | – |
| COc1ccc(CNC(=O)c2nc(Cn3nc(C)c(Br)c3C)no2)cc1OC | – | inactive: -4.51% |
| C=C(C)CC1Nc2ccccc2NC1CC(=C)C (stereo unspecified) | inconclusive: 25.1 µM [inhibitor, single point] | – |
| Cc1ccc(CNC(=O)c2cn(C)c(=O)c3c2c2ccccc2n3C)o1 | inconclusive: 15.8 µM [inhibitor, partial curve] | – |
| COC(=O)c1ccc(-c2ccco2)n1Cc1cccc(C)c1 | – | inactive: -17.5% |
| COc1cc(/C=C/C(=O)c2ccccc2O)cc(OC)c1OC | inconclusive: 28.2 µM [inhibitor, single point] | – |
| Oc1c(/C=N/c2ccccn2)sc2ccccc12 | active: 5.62 µM | – |
| CCCCn1c(=O)c2oc3ccccc3c2n(CC(=O)Nc2cccc(Cl)c2C)c1=O | – | inactive: 5.76% |
| Clc1ccc(OCc2cc(-c3ccccc3)no2)cc1Cl | inconclusive: 2.24 µM [inhibitor, full curve] | – |
| O=C(CC1C(=O)NCCN1Cc1ccc(-c2ccccc2)cc1)NCc1ccccc1 (stereo unspecified) | inconclusive: 8.91 µM [inhibitor, full curve] | – |
| CC(=O)Nc1ccc(NC(=O)c2oc3cc(C)c(C)cc3c2C)cc1 | inconclusive: 12.6 µM [inhibitor, partial curve] | – |

| Compound | Potency | activity, negative = inhibition |
| --- | --- | --- |
| CCOC(=O)Cc1csc(NC(=O)c2c(O)c3c(n(CC(C)C)c2=O)CCCC3)n1 | inconclusive: 7.94 µM [inhibitor, full curve, poor fit] | – |
| Cc1c(CCO)c(=O)[nH]n1S(=O)(=O)c1ccccc1 | – | inactive: -0.027% |
| CCCN(CCC)S(=O)(=O)c1ccc(C(=O)OCCN2C(=O)c3cccc4c(N5CCOCC5)ccc(c34)C2=O)cc1 | inconclusive: 35.5 µM [activator, partial curve, poor fit] | – |
| CC(C)c1ccc(NC(=O)c2ccc(F)c(S(=O)(=O)N3CCCCCC3)c2)cc1 | inconclusive: 22.4 µM [activator, single point] | – |
| COc1cc(/C=N/NC(=O)c2ccncc2)ccc1OCCN1CCCCC1 | – | inactive: -1.08% |
| COc1ccc(N/N=C(\C=N\O)C(=O)c2ccc(OC)cc2)cc1 | active: 12.6 µM | – |
| CN(C)c1ccc(-c2cc(NCc3cccnc3)ncn2)cc1 | inconclusive: 7.08 µM [inhibitor, partial curve, poor fit] | – |
| CC(=O)c1ccc(Oc2nc(C)nc3c2oc2ccccc23)cc1 | – | inactive: -0.628% |
| CCN(CC)c1ccc2cc(-c3nc(-c4ccc(OC)cc4)cs3)c(=O)oc2c1 | inconclusive: 0.891 µM [activator, full curve] | – |
| Cc1ccc(C(=O)COC(=O)c2cc(Cl)nc3ccccc23)cc1 | inconclusive: 7.08 µM [inhibitor, partial curve, poor fit] | – |
| CCC(=O)Nc1ccc2c(c1)nc1n2CCN(C2CCCCC2)C1 | inconclusive: 15.8 µM [inhibitor, partial curve] | – |
| COc1cc(-c2cccs2)cc(=O)c2c(C)oc(C)c12 | active: 25.1 µM | – |
| CC1=C(C)CC(C(=O)NNC(=O)c2csc3c2CCC(C(C)(C)C)C3)C(C(=O)O)C1 (stereo unspecified) | inconclusive: 39.8 µM [inhibitor, single point] | – |
| Oc1ccc(/C=N/N2CCN(C3c4ccccc4-c4ccccc43)CC2)c(O)c1 | – | inactive: -18.2% |
| CCN(C(=O)c1cc2cc3ccc(OC)cc3nc2o1)c1cccc(C)c1 | inconclusive: 12.6 µM [inhibitor, single point] | – |
| COc1cccc2c(=O)cc(C)n(CC(=O)Nc3ccc(Br)cc3)c12 | inconclusive: 1.12 µM [inhibitor, full curve, poor fit] | – |
| CCOC(=O)c1sc(/N=C/c2c(O)ccc3ccccc23)cc1C | inconclusive: 20 µM [inhibitor, partial curve] | – |
| Oc1oc(-c2ccco2)nc1C=Nc1ccccc1 | inconclusive: 14.1 µM [inhibitor, single point] | – |
| CC(C)c1nnc(N2C(=O)c3oc4ccccc4c(=O)c3C2c2ccco2)s1 (stereo unspecified) | inconclusive: 12.6 µM [inhibitor, partial curve] | – |
| COCCCNCCCCOc1ccc(C)cc1[N+](=O)[O-] | – | inactive: 0.274% |
| O=C(Cn1ncn2nc(-c3cccs3)cc2c1=O)NCc1cccc(Br)c1 | – | inactive: -5.56% |
| COc1cc(CN2CCN(C(=O)CC(C)C)CC2)cc(OC)c1O | inconclusive: 25.1 µM [inhibitor, partial curve] | – |
| CCc1cc2c3c(c1)C1(C(=O)N3C(C)(C)C=C2C)C(C#N)=C(N)Oc2[nH]c(=O)[nH]c(=O)c21 (stereo unspecified) | active: 14.1 µM | – |
| Cc1ccccc1OCc1nc(-c2ccc(NC(=O)c3ccc4c(c3)OCO4)cc2)no1 | inconclusive: 1 µM [inhibitor, full curve] | – |

| Compound | Potency | activity, negative = inhibition |
| --- | --- | --- |
| CCC(CC)COC(=O)C(C#N)c1nc2ccccc2nc1N1CCN(CC)CC1 (stereo unspecified) | inconclusive: 20 µM [inhibitor, partial curve] | – |
| O=C1CC(Nc2ccccc2)C(=O)N1CCc1ccccc1 (stereo unspecified) | – | inactive: -5.23% |
| COc1ccc(/C=C/C=C2\NC(=S)NC2=O)cc1 | active: 2 µM | – |
| CCCN1C2=C(C(=O)CC(C)(C)C2)C(c2ccc(F)cc2)C2=C1c1ccccc1C2=O (stereo unspecified) | inconclusive: 8.91 µM [inhibitor, partial curve] | – |
| N#Cc1cnc(SCCc2ccccc2)nc1N | – | inactive: -1.44% |
| CC(C)(C)OC(=O)N1CCC(C(=O)N2CCCCCC2)CC1 | – | inactive: 5.12% |
| CCN(CC)S(=O)(=O)c1cc(NC(=O)COC(=O)c2ccc(NC(=O)CC#N)cc2)ccc1C | – | inactive: 1.88% |
| N#Cc1nc(-c2cccs2)oc1NCc1ccccc1 | – | inactive: -17.1% |
| O=[N+]([O-])c1cc(C(F)(F)F)ccc1NCCOc1ccccc1 | inconclusive: 20 µM [inhibitor, partial curve] | – |
| O=C(Nc1ccccc1F)c1ccc(-n2cncn2)nc1 | – | inactive: -12.3% |
| O=C(c1ccc(Cl)cc1)C1C2C(=O)N(c3ccccc3)C(=O)C2C2CCCN21 (stereo unspecified) | inconclusive: 35.5 µM [inhibitor, single point] | – |
| Cn1c(=O)n(C/C=C/c2ccccc2)c(=O)c2c1nc1n2CCN1c1ccccc1 | inconclusive: 11.2 µM [inhibitor, partial curve] | – |
| COc1ccc(OC)c(-c2csc(-c3c(N)c(C(=O)c4ccccc4)n4ccccc34)n2)c1 | inconclusive: 6.31 µM [inhibitor, partial curve] | – |
| CC(C)N1C(=O)S/C(=C/c2ccc(Sc3nc4ccccc4[nH]3)o2)C1=O | inconclusive: 14.1 µM [inhibitor, partial curve] | – |
| COc1cc(/C=C/C(=O)O)cc(S(=O)(=O)NCc2ccco2)c1OC | inconclusive: 44.7 µM [inhibitor, single point] | – |
| CN(C)CCCN(C(=O)c1ccc(N2C(=O)CCC2=O)cc1)c1nc2c(F)cccc2s1 | – | inactive: -8.57% |
| CCN(CCCNC(=O)CCc1nc(-c2ccc(OC)cc2)no1)c1cccc(C)c1 | inconclusive: 17.8 µM [inhibitor, partial curve] | – |
| CCOC(=O)c1c(C)[nH]c(C2=NNC(=Nc3ccccc3OC)SC2)c1C | active: 7.94 µM | – |
| O=C(/C=C\c1ccc2c(c1)OCO2)NC1CC(=O)N(c2cccc(F)c2)C1 (stereo unspecified) | – | inactive: 0.817% |
| CC1CCCN(C(=O)c2cc(F)c(F)cc2Cl)C1 (stereo unspecified) | – | inactive: -5.36% |
| CCCCCc1cc(=O)oc2c(C(CCN3CCCC(C)C3)c3ccc(N(C)C)cc3)c(OC)cc(OC)c12 (stereo unspecified) | inconclusive: 14.1 µM [inhibitor, partial curve] | – |
| CCOc1ccc(S(=O)(=O)N(CC(=O)Nc2ccc3c(c2)OCO3)c2ccccc2)cc1 | inconclusive: 6.31 µM [inhibitor, single point] | – |
